Data on 2 molecules can be found in publication PMC8080847, “Analysis of transient membrane protein interactions by single-molecule diffusional mobility shift assay” (Experimental & Molecular Medicine, 2021).

For the assay, the target named is T1, EGFR on human cancer cell lines (human (endogenous in A431, A549, …, UniProt P00533)).
T1 construct: EGFR, the bait on the plasma membrane of the cancer cell lines; Labelled with the Alexa Fluor 647 Fab of the anti-EGFR antibody (a tool); source: endogenous, on living A431, A549, NCI-H508, Caco-2, Skbr3 and Skov3 cells
Briefly: single-molecule diffusional mobility shift assay (smDIMSA); average of the diffusion coefficient shifts over the cancer cell lines; EGFR as bait, each receptor as prey with an antibody targeting the prey. The settings on record: partners not purified.

B1: integrin5a on human cancer cell lines (receptor)
chain: not shown
notes: prey on the plasma membrane of the cancer cell lines
In the case of B1, the “average diffusion coefficient shift in cancer cell lines” value is 10.2%.

B2: CD44 on human cancer cell lines (receptor)
chain: [about 200 residues not listed]ATTLMSTSATATETATKRQETWDWFSWLFLPSESKNHLHTTTQMAGTSSNTISAGWEPNEENEDERDRHLSFSGSGIDDDEDFISSTISTTPRAFDHTKQNQDWTQWNPSHSNPEVLLQTTTRMTDVDRNGTTAYEGNWNPEAHPPLIHHEHHEEEETPHSTSTIQATPSSTTEETATQKEQWFGNRWHEGYRQTPKEDSHSTTGTAAASAHTSHPMQGRTTPSPEDSSWTDFFNPISHPMGRGHQAGRRMDMDSSHSITLQPTANPNTGLVEDLDRTGPLSMTTQQSNSQSFSTSHEGLEEDKDHPTTSTLTSSNRNDVTGGRRDPNHSEGSTTLLEGYTSHYPHTKESRTFIPVTSAKTGSFGVTAVTVGDSNSNVNRSLSGDQDTFHPSGGSHTTHGSESDGHSHGSQEGGANTTSGPIRTPQIPEWLIILASLLALALILAVCIAVNSRRRCGQKKKLVINSGNGAVEDRKPSGLNGEASKSQEMVHLVNKESSETPDQFMTADETRNLQNVDMKIGV
notes: CD44, prey on the plasma membrane of the cancer cell lines
On to B2, for which the “average diffusion coefficient shift in cancer cell lines” value worked out at 11.1%.
